From publication PMC12136788
The other results are listed elsewhere or left out.

B1: chr12:49763637:49763739:+|3pUTR|ENSG00000139644|msi1_unk|total|mutant (ssRNA)
RNA: GGGAGUUCUACAGUCCGACGAUCAUGUGUAUCAAGGUACAGCAUCGCCGGGUUCCCCUAAACUUGCCCUGUUUUUGUUUUUUCCGUUUGUUAUCCCCUUACUGAGCGGCCUCUACCCGGUGGCUGUGAUUAAAUGUCCCAAGCCAACAGAGGAUUGAGCAUCA
B2: chr7:5620113:5620210:-|3pUTR|ENSG00000011275|msi1_unk|total|mutant (ssRNA)
RNA: GGGAGUUCUACAGUCCGACGAUCGUCACUUUGUAUAAAAACAAGAAACGAUCCGUUCAUUAAACUUUUUCUUUACCUUCUGGCCGUAAAAACCGAUAAAAUAAUUCCGUUUCAACUACUGUGUGUAAAAAGCCUGUAUCAUAUCAACAGAGGAUUGAGCAUCA
B3: chr7:32869000:32869101:-|3pUTR|ENSG00000170852|msi1|FALSE|bound_elsewhere (ssRNA)
RNA: GGGAGUUCUACAGUCCGACGAUCAAUUGAGAAACUUUAUGUGUAAUCAUGAGAGUAUAAGAAUCUGGAUUAUCUAACAUUGUUAGCCCUGUGUAUGUACAGUUCAAAAAGUUCAUUUAUAAAAGUAGUUUCCUGUUCCUAGUGCAACAGAGGAUUGAGCAUCA
B4: chr1:17407970:17408071:-|3pUTR|ENSG00000179051|msi1|total|mutant (ssRNA)
RNA: GGGAGUUCUACAGUCCGACGAUCGGGUACCGUUCUGCUGACCCAGCUCCCUUCCGUCACGUUUGCUUGGCUCUGGUACCAAACCGUUGGGAUUACCGAAGAGUCCCCUUCCUUGCGUGUCAGCACGGAUGCUGUGACUGCCACCAACAGAGGAUUGAGCAUCA
B5: chr11:69651733:69651797:+|3pUTR|ENSG00000110092|msi1_unk|total|mutant (ssRNA)
RNA: GGGAGUUCUACAGUCCGACGAUCAAAACAUUUUAAAAACACCGAAAAAUUCAGCAAACCAUUUUUAAAGCCGAAGAGGGUUUCCGGCCGAAAAACAUAUUCUUGUGCUUUUCCUGAUAAAGCACAGCUGCCGUGGGGUUCCCGCAACAGAGGAUUGAGCAUCA
B6: ENSG00000198589:be:win_9701|3pUTR|ENSG00000198589|bound_else_gene|NA|bound_elsewhere_windowed (ssRNA)
RNA: GGGAGUUCUACAGUCCGACGAUCCAAGGAUUUGGAAUGAACAAUUCAGUUUGACAGAAAAAGCUGAAUAAAAUGGCAUCUGUAAUUGAAUUGUUGGAAAUGCCUUUUUUGCUCCUAAAUUUUAAACAUCAUUAAUAAAAUAAUCAACAGAGGAUUGAGCAUCA
B7: ENSG00000077232:stop:overlap|stop_codon|ENSG00000077232|stop_codon|NA|stop_codon (ssRNA)
RNA: GGGAGUUCUACAGUCCGACGAUCUGUUGGUUAAUAUCUUUCAUCAGUUGUGGAAACCUGUCAGCUGGAUGGUCUUGUUAAUGUAGGAUGGAUGGACUGUGCCACCCAGGAUAACCUUUGUAAAAGCUUAGAUAUUACAACAAGCAACAGAGGAUUGAGCAUCA
B8: chr9:20999508:21007036:-|three_prime_utr|ENSG00000188921|control|control|control (ssRNA)
RNA: GGGAGUUCUACAGUCCGACGAUCAUACCUUGUAUUUGAUAAAAAUCCAUUACAUGAAAUAACUGCACAUACCCCCAAAACUCUAGACAUAACAGGCUAUGUUUUUCACACAUUGUAUUUUUAAGACAUAUAUAUUCUCCAUACCAACAGAGGAUUGAGCAUCA
B9: chr13:52461607:52461862:+|CDS|ENSG00000136108|unk|total|mutant (ssRNA)
RNA: GGGAGUUCUACAGUCCGACGAUCGUUACAAUCCGGAAAGGGCCUCAUGAAAAAGAACUAUUACAAUCAAAAACAGCUUUAUCCCGUGUCAAAACCAGUUCUUCUCAAGGUAUAAUAAGAAAUAAGACUCUAUCAAGAUCCAUACAACAGAGGAUUGAGCAUCA
B10: ENSG00000074590:stop:overlap|stop_codon|ENSG00000074590|stop_codon|NA|stop_codon (ssRNA)
RNA: GGGAGUUCUACAGUCCGACGAUCACAUGGAUGAUGUGACUCAGGUCUACAAGCAAGCGCUGGAGAUCUGCAGCAAGCUCAACUAGCAUUCCAGGGCGCCCAGGGGCGGGCGGGGGUACGAGGGAGGAAGGGGAGCAAGACUUGCAACAGAGGAUUGAGCAUCA
B11: chr12:122341087:122341188:-|CDS|ENSG00000130779|unk|total|mutant (ssRNA)
RNA: GGGAGUUCUACAGUCCGACGAUCAGAAUUUGCUGAACUAAAAACACAAACCGAGAAAAUGAGACCCGAUUACCAACACGAAACCGAAAAUUUGCAGAAUCAACAAGACUCUGAACGGGCUGCCCAUGCUAAAGAGAUGGAAGCCAACAGAGGAUUGAGCAUCA
B12: chr5:72208839:72208948:+|3pUTR|ENSG00000131711|msi1_unk|FALSE|overlapping (ssRNA)
RNA: GGGAGUUCUACAGUCCGACGAUCCUUGCCUCUCUUUAGUCACCUGUCACAGGAGGUUCCUGCUCAGUAAUGAUAUUGUGAGUUAGGAUAAUAACUUUUUUUUUUUGUGCUUCAGAUUUAGAAGAAAAGAUCCUGUUUCCAUUUCAACAGAGGAUUGAGCAUCA
B13: chr1:85267750:85267865:-|CDS|ENSG00000142867|unk|FALSE|unique (ssRNA)
RNA: GGGAGUUCUACAGUCCGACGAUCAGGAGAAUCCAGCACGACGCCCUUUUUUUCUACUAAUUCUUCUCUGAAUUUGCCUGUUCUAGAAGUAGGCAGAACUGAAAAUACCAUCUUCUCUUCAACUACACUUCCCAGACCUGGGGACAACAGAGGAUUGAGCAUCA
B14: chr1:206732925:206733026:+|3pUTR|ENSG00000162889|msi1|total|mutant (ssRNA)
RNA: GGGAGUUCUACAGUCCGACGAUCAAGUGAGCAAGGUGCUCUUGAACCUGUGCUCAUUUUGCAAUUUUAUCAGUAAUUUGACUCCGAGUUUUUACGAAACCUCUUUUGUUGUCCUUGCCCCACUCCUCUCCACCAGACGCCUUCCAACAGAGGAUUGAGCAUCA
B15: chr2:169127108:169128830:-|three_prime_utr|ENSG00000081479|control|control|control (ssRNA)
RNA: GGGAGUUCUACAGUCCGACGAUCCUGCAACAGAAGACACUUUUAAAGACACCGCAAAUCUUGUUAAAGAAGACUCUGAAGUAUAGCUAUACCAGCUAUUUAGGGAAUAAUUAGAAACACACUUUUGCACAUAUAUUUUUUACACAACAGAGGAUUGAGCAUCA
B16: chr1:35420597:35420698:+|3pUTR|ENSG00000146463|msi1|FALSE|bound_elsewhere (ssRNA)
RNA: GGGAGUUCUACAGUCCGACGAUCGUUCCUCUUAUUUUGUCUUUUGCACCAGUUUCUGGAGGCCCUUGUCAUUUCAAAAAGGAUAGUCUCUUUUCUUACUCUGGCAAACCUGUGAGUGAUUCCACAAAGAUACAGUAUUACUUACAACAGAGGAUUGAGCAUCA
B17: chr1:51271806:51271833:+|3pUTR|ENSG00000123091|msi1_unk|FALSE|overlapping (ssRNA)
RNA: GGGAGUUCUACAGUCCGACGAUCCAUUUGGGUCAAGGUUUUAUUAAAAGCUACAUUUUAUAACACUGGCACACACAAAAAAGUAGUUUUAAGCUUGUUUGCACAGUUCUUUUUUUCCAUUGGAAAUGGAAUUCAUUGCCUUAGCAACAGAGGAUUGAGCAUCA
B18: chr1:18907414:18907603:-|3pUTR|ENSG00000169991|msi1|total|mutant (ssRNA)
RNA: GGGAGUUCUACAGUCCGACGAUCCCUUGAUUUCCCUGAUAACUUGAUGUUCUUCCCUCCCUCGCCAGCCAACAACCGAGGCUCCGAGAUCUGUAAUUUCUCUGUGAGAAAGUCUGAAGGGGCCAGGCCUGGUCUCUGCUCCCUCAACAGAGGAUUGAGCAUCA
B19: chr11:119418913:119419014:-|3pUTR|ENSG00000154096|msi1|FALSE|unique (ssRNA)
RNA: GGGAGUUCUACAGUCCGACGAUCAUCGGGACCAGAAACCUGGGAGAGACUUGGAUGAGGAGUGGUUGGGCUGUGCCUGGGCCUAGCACGGACAUGGUCUGUCCUGACAGCACUCCUCGGCAGGCAUGGCUGGUGCCUGAAGACCAACAGAGGAUUGAGCAUCA
B20: chr3:41225420:41225524:+|CDS|ENSG00000168036|unk|FALSE|unique (ssRNA)
RNA: GGGAGUUCUACAGUCCGACGAUCCAUGCGUUCUCCUCAGAUGGUGUCUGCUAUUGUACGUACCAUGCAGAAUACAAAUGAUGUAGAAACAGCUCGUUGUACCGCUGGGACCUUGCAUAACCUUUCCCAUCAUCGUGAGGGCUUCAACAGAGGAUUGAGCAUCA
B21: chrX:120253675:120253799:+|CDS|ENSG00000177485|unk|FALSE|bound_elsewhere (ssRNA)
RNA: GGGAGUUCUACAGUCCGACGAUCUAAAAUUGUUCGUGUUAGAUCAGAUUUGCUUGAUGAGUUAAUUAAAUCAGGGCAGUUAUUAGGAGUGAAAUUUAUAGCAGAGCUUGGUGUCCCAUUGUCACAGGUUAAAAGCAUCUCAGGCAACAGAGGAUUGAGCAUCA
B22: chr12:79451877:79451978:+|3pUTR|ENSG00000067715|msi1|total|mutant (ssRNA)
RNA: GGGAGUUCUACAGUCCGACGAUCCCUUCAUUUUUGAUGAGGUGAUUUAAAUUUUGUUUCACUUUGUGCCGUGAAUUCCACAGCCGUUUUCUGAUUGUUGUUAAAAAUGACUUAACAUAUUACACAGAUAUUCAAUAAAAAUGUCAACAGAGGAUUGAGCAUCA

The binders below were run against MSI1 full-length (mouse, UniProt Q61474 1-362) (assay: nsRBNS (natural sequence RNA bind-n-seq); RBNS binding buffer (assumed for nsRBNS): 25 mM Tris pH 7.5, 150 mM KCl, 3 mM MgCl2, 0.01% Triton X-100, 500 ug/ml BSA, 20 U/ml SUPERase-In, 4 C; UNK is unkempt and MSI1 is Musashi-1; names of the RNAs are library labels; protein concentration not given here; high values mean tight binding).
Sequence of UniProt Q61474 (Q61474 whole entry): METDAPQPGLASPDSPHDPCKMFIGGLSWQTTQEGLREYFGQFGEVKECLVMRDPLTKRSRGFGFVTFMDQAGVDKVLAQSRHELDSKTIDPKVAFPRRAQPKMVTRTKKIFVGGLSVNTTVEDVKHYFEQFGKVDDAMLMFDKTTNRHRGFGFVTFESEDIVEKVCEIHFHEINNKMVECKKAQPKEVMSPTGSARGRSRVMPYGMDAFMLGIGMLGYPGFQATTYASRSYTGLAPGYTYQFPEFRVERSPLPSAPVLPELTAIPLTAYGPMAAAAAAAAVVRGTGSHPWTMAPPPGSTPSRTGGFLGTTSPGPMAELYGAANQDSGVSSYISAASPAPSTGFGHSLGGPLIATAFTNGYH

Binder	binding signal [enrichment R]
B1	0.481
B2	0.325
B3	2.31
B4	0.479
B5	0.474
B6	0.605
B7	1.23
B8	3.67
B9	1.26
B10	0.662
B11	0.402
B12	0.648
B13	0.414
B14	0.306
B15	4.78
B16	0.701
B17	0.859
B18	0.615
B19	0.537
B20	0.513
B21	12.6
B22	0.433
